Results: the supplement of paper PMC12217912
The other results are listed elsewhere or left out. Sequences were assembled here from the parent chain. Inactive controls read about 0.05.

B1: TEV protease; numbered along this chain (parent)
chain: MGESLFKGPRDYNPISSSICHLTNESDGHTTSLYGIGFGPFIITNKHLFRRNNGTLVVQSLHGVFKVKDTTTLQQHLVDGRDMIIIRMPKDFPPFPQKLKFREPQREERICLVTTNFQTKSMSSMVSDTSCTFPSGDGIFWKHWIQTKDGQCGSPLVSTRDGFIVGIHSASNFTNTNNYFTSVPKNFMELLTNQEAQQWVSGWRLNADSVLWGGHKVFMVKPEEPFQPVKEATQL

Variants of: B1
Test: raw area under fraction-flipped curve 0-4 h after induction (AUC4h, not background-subtracted), DNA-recorder readout of cleavage of the substrate (dimensionless); higher = more cleavage of the substrate by the protease variant
Details: temperature: 34 °C; time window: 0-4 h after rhamnose induction
Procedure: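 In vivo DNA recorder in E. coli TOP10(DE3) ΔrhaA at 34 °C. Each TEVp single-site mutant (parent TEVp 0) is paired with a single-site variant of the 7-mer TEVs (canonical ENLYFQ|S). The substrate sits between flexible linkers in a Bxb1-sfGFP-TEVs-SsrA fusion, so cleavage stabilises Bxb1 and speeds flipping of a recombination array, read by NGS. The value is the raw area under the fraction-flipped curve over 0-4 h after rhamnose induction (AUC4h), with ≥20 reads per time point. It is not background-subtracted; inactive controls average about 0.047.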
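Further: Bxb1 expression induced with 0.2% (w/v) L-rhamnose at OD600 near 0.5, cultures sampled hourly, flipped fraction per protease–substrate barcode pair counted by paired-end Illumina sequencing.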

Variant	area with substrate ECLYFQS	area with substrate EELYFQS	area with substrate EGLYFQS	area with substrate EILYFQS	area with substrate ELLYFQS	area with substrate ERLYFQS	area with substrate ESLYFQS	area with substrate ETLYFQS	area with substrate EWLYFQS	area with substrate EYLYFQS	area with substrate EDLYFQS	area with substrate EKLYFQS	area with substrate EQLYFQS	area with substrate EHLYFQS	area with substrate EMLYFQS	area with substrate EVLYFQS	area with substrate EFLYFQS	area with substrate EPLYFQS
MKESLFKGPRDYNPISSSICHLTNESDGHTTSLYGIGFGPFIITNKHLFRRNNGTLVVQSLHGVFKVKDTTTLQQHLVDGRDMIIIRMPKDFPPFPQKLKFREPQREERICLVTTNFQTKSMSSMVSDTSCTFPSGDGIFWKHWIQTKDGQCGSPLVSTRDGFIVGIHSASNFTNTNNYFTSVPKNFMELLTNQEAQQWVSGWRLNADSVLWGGHKVFMVKPEEPFQPVKEATQL [G2K]	0.162	0.188	0.125	0.134	0.108	0.15	0.096	0.137	0.143	0.141								
MTESLFKGPRDYNPISSSICHLTNESDGHTTSLYGIGFGPFIITNKHLFRRNNGTLVVQSLHGVFKVKDTTTLQQHLVDGRDMIIIRMPKDFPPFPQKLKFREPQREERICLVTTNFQTKSMSSMVSDTSCTFPSGDGIFWKHWIQTKDGQCGSPLVSTRDGFIVGIHSASNFTNTNNYFTSVPKNFMELLTNQEAQQWVSGWRLNADSVLWGGHKVFMVKPEEPFQPVKEATQL [G2T]	0.137	0.154		0.15		0.172			0.15		0.0788	0.12	0.178					
MYESLFKGPRDYNPISSSICHLTNESDGHTTSLYGIGFGPFIITNKHLFRRNNGTLVVQSLHGVFKVKDTTTLQQHLVDGRDMIIIRMPKDFPPFPQKLKFREPQREERICLVTTNFQTKSMSSMVSDTSCTFPSGDGIFWKHWIQTKDGQCGSPLVSTRDGFIVGIHSASNFTNTNNYFTSVPKNFMELLTNQEAQQWVSGWRLNADSVLWGGHKVFMVKPEEPFQPVKEATQL [G2Y]	0.145		0.136		0.112		0.166			0.17	0.166		0.185	0.157	0.213	0.134		
MGWSLFKGPRDYNPISSSICHLTNESDGHTTSLYGIGFGPFIITNKHLFRRNNGTLVVQSLHGVFKVKDTTTLQQHLVDGRDMIIIRMPKDFPPFPQKLKFREPQREERICLVTTNFQTKSMSSMVSDTSCTFPSGDGIFWKHWIQTKDGQCGSPLVSTRDGFIVGIHSASNFTNTNNYFTSVPKNFMELLTNQEAQQWVSGWRLNADSVLWGGHKVFMVKPEEPFQPVKEATQL [E3W]	0.0952			0.0674		0.109			0.138	0.0988		0.0339		0.134	0.112	0.103	0.0977	0.195
MGESTFKGPRDYNPISSSICHLTNESDGHTTSLYGIGFGPFIITNKHLFRRNNGTLVVQSLHGVFKVKDTTTLQQHLVDGRDMIIIRMPKDFPPFPQKLKFREPQREERICLVTTNFQTKSMSSMVSDTSCTFPSGDGIFWKHWIQTKDGQCGSPLVSTRDGFIVGIHSASNFTNTNNYFTSVPKNFMELLTNQEAQQWVSGWRLNADSVLWGGHKVFMVKPEEPFQPVKEATQL [L5T]	0.11				0.136	0.116	0.118		0.145					0.0876	0.131	0.105		0.127
MGESLAKGPRDYNPISSSICHLTNESDGHTTSLYGIGFGPFIITNKHLFRRNNGTLVVQSLHGVFKVKDTTTLQQHLVDGRDMIIIRMPKDFPPFPQKLKFREPQREERICLVTTNFQTKSMSSMVSDTSCTFPSGDGIFWKHWIQTKDGQCGSPLVSTRDGFIVGIHSASNFTNTNNYFTSVPKNFMELLTNQEAQQWVSGWRLNADSVLWGGHKVFMVKPEEPFQPVKEATQL [F6A]	0.0656						0.0918			0.0703	0.0757		0.0771				0.0795	
MGESLNKGPRDYNPISSSICHLTNESDGHTTSLYGIGFGPFIITNKHLFRRNNGTLVVQSLHGVFKVKDTTTLQQHLVDGRDMIIIRMPKDFPPFPQKLKFREPQREERICLVTTNFQTKSMSSMVSDTSCTFPSGDGIFWKHWIQTKDGQCGSPLVSTRDGFIVGIHSASNFTNTNNYFTSVPKNFMELLTNQEAQQWVSGWRLNADSVLWGGHKVFMVKPEEPFQPVKEATQL [F6N]	0.114		0.0941	0.0988		0.109	0.0738				0.163	0.0904	0.109	0.0976		0.0967		0.128
MGESLFKGPRDYNPGSSSICHLTNESDGHTTSLYGIGFGPFIITNKHLFRRNNGTLVVQSLHGVFKVKDTTTLQQHLVDGRDMIIIRMPKDFPPFPQKLKFREPQREERICLVTTNFQTKSMSSMVSDTSCTFPSGDGIFWKHWIQTKDGQCGSPLVSTRDGFIVGIHSASNFTNTNNYFTSVPKNFMELLTNQEAQQWVSGWRLNADSVLWGGHKVFMVKPEEPFQPVKEATQL [I15G]	0.0759		0.0671	0.0697	0.0509	0.0774	0.0817	0.0485	0.0667		0.0804	0.0809			0.0676	0.0739	0.08	0.0637
MGESLFKGPRDYNPISSGICHLTNESDGHTTSLYGIGFGPFIITNKHLFRRNNGTLVVQSLHGVFKVKDTTTLQQHLVDGRDMIIIRMPKDFPPFPQKLKFREPQREERICLVTTNFQTKSMSSMVSDTSCTFPSGDGIFWKHWIQTKDGQCGSPLVSTRDGFIVGIHSASNFTNTNNYFTSVPKNFMELLTNQEAQQWVSGWRLNADSVLWGGHKVFMVKPEEPFQPVKEATQL [S18G]	0.111		0.0785	0.0863	0.0894	0.1	0.0907					0.104	0.0807	0.101	0.0988	0.0855		
